What is called pIC50 is the negative decadic logarithm of the IC50, by convention in mol/L.

pIC50: −log10 of the molar value.

Sequence of UniProt O14744 (O14744 whole entry): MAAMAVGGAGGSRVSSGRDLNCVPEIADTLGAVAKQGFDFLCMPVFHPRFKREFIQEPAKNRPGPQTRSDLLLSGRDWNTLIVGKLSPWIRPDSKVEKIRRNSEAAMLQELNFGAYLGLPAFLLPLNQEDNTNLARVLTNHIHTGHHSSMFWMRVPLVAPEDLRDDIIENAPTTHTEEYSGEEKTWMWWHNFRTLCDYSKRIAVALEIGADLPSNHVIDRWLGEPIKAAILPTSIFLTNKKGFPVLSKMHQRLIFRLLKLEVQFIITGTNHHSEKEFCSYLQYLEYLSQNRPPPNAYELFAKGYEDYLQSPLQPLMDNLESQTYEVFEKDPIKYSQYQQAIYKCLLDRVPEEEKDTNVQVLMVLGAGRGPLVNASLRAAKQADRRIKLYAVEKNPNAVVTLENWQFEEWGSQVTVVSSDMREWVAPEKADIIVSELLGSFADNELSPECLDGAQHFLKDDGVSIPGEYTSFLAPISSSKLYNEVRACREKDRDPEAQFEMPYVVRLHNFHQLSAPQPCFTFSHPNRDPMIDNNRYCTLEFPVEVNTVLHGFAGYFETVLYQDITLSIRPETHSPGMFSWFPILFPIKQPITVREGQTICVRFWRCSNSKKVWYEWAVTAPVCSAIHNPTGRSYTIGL
Sequence of UniProt O14744 (Q9BQA1 whole entry partner): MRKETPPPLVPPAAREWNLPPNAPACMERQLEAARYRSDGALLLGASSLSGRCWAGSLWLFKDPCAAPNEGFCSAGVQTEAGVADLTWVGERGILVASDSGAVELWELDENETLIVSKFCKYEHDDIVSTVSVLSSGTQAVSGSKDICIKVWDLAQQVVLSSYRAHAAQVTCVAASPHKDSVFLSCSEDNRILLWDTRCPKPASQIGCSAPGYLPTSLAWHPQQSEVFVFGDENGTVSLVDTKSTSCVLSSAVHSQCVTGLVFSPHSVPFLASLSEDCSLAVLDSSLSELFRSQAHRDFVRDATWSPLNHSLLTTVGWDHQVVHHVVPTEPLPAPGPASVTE

For the experiment, the target named is PRMT5/MEP50 Complex (Homo sapiens (Human), UniProt O14744). As to the kind of experiment: PRMT5 inhibition based on TR-FRET assay. It counts as biochemical. The following applies: 32 nM PRMT5:MEP50, 50 nM Histone-H4 peptide, 1 μM SAM. The text has this: PRMT5 Inhibition Based on TR-FRET Assay:
Protein arginine methyltransferase 5 (PRMT5) is a type II arginine methyltransferase that catalyze mono- and symmetric demethylation on arginine residues of histone or non-histone proteins in presence of S-adenosylmethionine (AdoMet or SAM) a cofactor responsible for donating the methyl group. PRMT5 is reported to be overexpressed in several human cancers. To identify compounds that inhibit the PRMT5 and decrease its activity, a TR-FRET based assay has been established. Time-resolved fluorescence resonance energy transfer (TR-FRET) HTS assays are homogeneous proximity assays where the interaction of two dye-labeled binding partners is detected by the energy transfer between a donor and an acceptor dye and the subsequent light emission by the acceptor dye. PRMT5 catalyzes Histone H4 peptide which is biotin tagged to the Lysine amino acid at carboxyl end, in presence of S-adenosyl-1-methionine (SAM) to methylate the peptide. The antibody specific to mono methylated H4 peptide (H4R3) with Ig conjugate binds to the methylated peptide, indirectly binding to the Europium lanthanide. SureLight Allophycocyanin-Streptavidin binds to the biotin tag of the peptide, therefore accepting the energy transferred from the Europium lanthanide. This energy transfer between Europium to SureLight Allophycocyanin is a direct measure of the activity/inhibition of the PRMT5 enzyme.
Assay buffer: 20 mM BICINE (pH 7.6), 25 mM NaCl, 2 mM DTT, 0.01% Tween-20 and 0.01% BSA.
The compound dilutions were prepared as 7.5% DMSO stock solutions in assay buffer. To 2 μL (7.5×) of test compound, 5 μL of PRMT5 enzyme prepared in assay buffer (Final concentration of 32 nM in 15 μL reaction volume) was added and allowed for 30 minutes pre-incubation time in a white polystyrene 384-well plate at room temperature. […] The plates were then read on Victor-3 with Excitation at 340 nm and Emissions collected at 615 and 665 nm in TR-FRET protocol. […]
On the technique in general: Time-resolved FRET reads energy transfer from a long-lived donor to a nearby acceptor.
As for `N#Cc1ccc(CN2C(=O)CN(CC(O)CN3CCc4ccccc4C3)C2=O)nc1` (stereo not drawn) [Example 73, 6-((3-(3-(3,4-dihydroisoquinolin-2(1H)-yl)-2-hydroxypropyl)-2,5-dioxoimidazolidin-1-yl)methyl)nicotinonitrile], the pIC50 was 6.57.
Compound `COc1cc(CN2C(=O)N(CC(O)CN3CCc4ccccc4C3)C(C)(C)C2=O)ccc1C#N` (stereo not drawn) [Example 75, 4-((3-(3-(3,4-Dihydroisoquinolin-2(1H)-yl)-2-hydroxypropyl)-4,4-dimethyl-2,5-dioxoimidazolidin-1-yl)methyl)-2-methoxybenzonitrile] showed a pIC50 of 6.47.
Compound `CC1(C)C(=O)N(Cc2ccc3c(c2)COCC3)C(=O)N1CC(O)CN1CCc2ccccc2C1` (stereo not drawn) [Example 76, 1-(3-(3,4-dihydroisoquinolin-2(1H)-yl)-2-hydroxypropyl)-3-(isochroman-7-ylmethyl)-5,5-dimethylimidazolidine-2,4-dione] showed a negative logarithm of the IC50 (pIC50) of 6.64. The pIC50 values of the last two compounds are within 0.2 log units of each other.

Values taken from US11365205B2 (Aurigene Discovery Technologies Limited, priority 2018, dated 2022).
